# Experimental data from article PMC4336329 (PLoS ONE, 2015).
# The campaign covered roughly 310,000 compounds. About 2,200 (0.71%) showed an effect of 50% or more. The effect is printed as a negative number. The list shows a part of the results.
# Molecular target: human ether-à-go-go-related gene (hERG) potassium channel (human, UniProt Q12809)
# Assay: primary screen, population patch clamp on CHO cells stably expressing hERG
# human ether-à-go-go-related gene (hERG) potassium channel, sequence (Q12809 whole entry, looked up): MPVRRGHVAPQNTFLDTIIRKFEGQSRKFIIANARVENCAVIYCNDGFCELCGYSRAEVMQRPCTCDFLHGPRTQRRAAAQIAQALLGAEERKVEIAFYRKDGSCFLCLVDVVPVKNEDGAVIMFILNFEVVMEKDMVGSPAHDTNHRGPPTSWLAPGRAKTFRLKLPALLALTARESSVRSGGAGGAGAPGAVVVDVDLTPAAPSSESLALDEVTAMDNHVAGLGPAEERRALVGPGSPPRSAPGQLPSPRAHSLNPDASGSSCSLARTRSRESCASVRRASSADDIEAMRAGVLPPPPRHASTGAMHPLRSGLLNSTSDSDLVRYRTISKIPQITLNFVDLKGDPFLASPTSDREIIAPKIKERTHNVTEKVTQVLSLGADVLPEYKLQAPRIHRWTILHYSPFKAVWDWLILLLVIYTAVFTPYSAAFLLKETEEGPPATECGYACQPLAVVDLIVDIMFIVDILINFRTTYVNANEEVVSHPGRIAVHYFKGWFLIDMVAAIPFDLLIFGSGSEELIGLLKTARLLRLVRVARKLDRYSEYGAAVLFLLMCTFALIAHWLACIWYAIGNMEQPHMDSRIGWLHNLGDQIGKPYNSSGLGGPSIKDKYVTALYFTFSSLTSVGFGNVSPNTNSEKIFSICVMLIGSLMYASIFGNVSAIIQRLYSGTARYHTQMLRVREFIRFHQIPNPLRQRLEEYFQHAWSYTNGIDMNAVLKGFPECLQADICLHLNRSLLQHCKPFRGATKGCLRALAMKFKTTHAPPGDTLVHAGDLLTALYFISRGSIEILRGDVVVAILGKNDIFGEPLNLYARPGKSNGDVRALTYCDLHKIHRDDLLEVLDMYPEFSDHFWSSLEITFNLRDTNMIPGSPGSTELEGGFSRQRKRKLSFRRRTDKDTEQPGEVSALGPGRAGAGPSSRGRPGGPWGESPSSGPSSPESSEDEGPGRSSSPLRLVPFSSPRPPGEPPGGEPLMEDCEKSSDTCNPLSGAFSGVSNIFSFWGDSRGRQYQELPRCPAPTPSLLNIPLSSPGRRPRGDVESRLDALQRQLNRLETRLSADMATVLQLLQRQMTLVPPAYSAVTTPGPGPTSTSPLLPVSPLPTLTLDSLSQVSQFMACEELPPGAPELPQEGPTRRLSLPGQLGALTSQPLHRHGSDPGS
row,SMILES,"hERG current change (%, negative = inhibition) at 1uM [%]"
1,COc1ccc(CSCC(=O)NN=C2CCN(C)CC2)cc1,2.17
2,CC(C)C(NC(=O)c1ccccc1)C(=O)N1CCN(C/C=C/c2ccccc2)CC1 (centres unmarked),-3.15
3,CC(C)OCCCNC(=O)Cc1ccc(Br)cc1,14.8
4,COc1ccc(CNC(=O)C(=O)NCC2OCCCN2S(=O)(=O)c2cccs2)cc1 (centres unmarked),11.4
5,Cc1nn(C)c(C)c1/C=C(/C(=O)C(C)C)n1cncn1,10.1
6,CCOC(=O)C1=C(COC(=O)c2ncc(Cl)c(Cl)c2Cl)NC(=O)NC1C (centres unmarked),-7.95
7,CCn1cc(C(=O)NC(=S)Nc2ccccc2[N+](=O)[O-])cn1,6.77
8,CCn1c(SCc2cccc(C(=O)O)c2)nnc1-c1ccc(Cl)cc1,16.6
9,CCOc1ccc(NC(=O)N2CCC(NC(=O)C(Cc3ccccc3OC)NC(C)=O)CC2)cc1 (centres unmarked),17.2
10,COc1ccc(CCNC(=O)C/C(C)=N/NC(=O)c2ccc([N+](=O)[O-])cc2Cl)cc1OC,8
11,CC(C)Cc1nnc(NC(=O)CCC(=O)N2CCN(Cc3ccccc3)CC2)s1,7.68
12,O=C(O)C(F)=C(c1ccccc1)c1ccccc1,15.9
13,COc1ccccc1NC(=O)CCN1CCN(Cc2ccccc2)CC1,1.83
14,Cc1ccccc1OCC(=O)N/N=C1\CCOc2c(C)cccc21,11.1
15,O=C(NCCc1ccccn1)c1ccc(OC(F)F)cc1,6.39
16,Cc1nn2c(nc(N3CCCCC3)c3ccccc32)c1C=O,-10.2
17,Cn1c(=O)[nH]c(=O)c2c1nc(N1CCOCC1)n2CCc1ccccc1,11.5
18,C(=N\Nc1nc2ccccc2[nH]1)/c1cccs1,8.27
19,Clc1ccc(-c2nn3c(-c4ccccc4)nnc3s2)cc1,-6.19
20,O=C(c1ccc(Cl)cc1)c1oc2ccccc2c1CS(=O)(=O)c1ccccc1,-18.1
21,CC1CCCCC1NC(=O)CCS(=O)(=O)c1cc2c(cc1Cl)NC(=O)CO2 (centres unmarked),-1.09
22,CCCC(=O)Nc1nc(-c2ccc(OC)cc2)cs1,7.03
23,O=S(=O)(c1cccc(-c2nnco2)c1)N1CCCC1,4.1

row,SMILES,"hERG current change (%, negative = inhibition) at 1uM [%]"
1,COc1cccc(/C=N/N2CCN(c3ccccc3OC)CC2)c1,2.68
2,CCC(=O)N1CCc2cc(S(=O)(=O)NC(C(=O)NCc3ccccc3)C(C)C)ccc21 (centres unmarked),14.5
3,COc1ccc(OC(C)C(=O)NC2CC(C)(C)NC(C)(C)C2)cc1 (centres unmarked),-1.84
4,O=C(NCC1CCCO1)C1CCN(S(=O)(=O)c2ccc(Br)cc2)CC1 (centres unmarked),2.01
5,CCn1c(SC(C)C(=O)OC)nnc1-c1c[nH]c2ccccc12 (centres unmarked),-4.06
6,COc1ccc(NC2=NC(C)(C)CS2)cc1,8.36
7,O=C(Cc1ccccc1)Nc1ccc(NC(=O)Cc2ccccc2)c(Cl)c1,26.2
8,Cc1cc(C)c2sc(N(CCCN(C)C)C(=O)c3ccc(Br)s3)nc2c1.Cl,7.12
9,CCOc1ccccc1NC(=O)Cn1c(=O)n(-c2ccccc2)c(=O)c2oc3ccccc3c21,8.94
10,Cc1ccc(NC(=O)CCOc2ccccc2C)cc1C,8.04
11,CCOC(=O)N1CCN(C(=O)C2CCN(S(C)(=O)=O)CC2)CC1,18.3
12,CCCOC(=O)c1ccc(Nc2nc(C)cc(=O)[nH]2)cc1,8.99
13,Br.N#Cc1ccc(OCC(=O)NN2Cc3ccccc3C2=N)cc1,12
14,Cc1ccc(C2C3C(=O)N(c4ccc(C)cc4)C(=O)C3N3CCCN23)cc1 (centres unmarked),10.9
15,Cc1ccc(Nc2nc(NCC3CCCO3)nc(N)c2[N+](=O)[O-])cc1C (centres unmarked),16.3
16,Cc1ccccc1C(=O)N1CCN(c2ccccn2)CC1,6.38
17,O=C(NCC(=O)N1CCC2(CC1)NCCc1[nH]cnc12)c1cccc(Cl)c1,14.5
18,Cc1cccc(C(=O)Nc2ccc3c(c2)nc(C)n3C)c1,8.9
19,CCOc1cc(C(=O)Nc2ccc(N3CCOCC3)cc2)cc(Br)c1OC,9.93
20,COC(=O)C1=C(c2ccccc2OCc2ccccc2)C[C@@H]2CC[C@H]1N2C(=O)NCc1ccc([N+](=O)[O-])cc1,1.54
21,COc1ccccc1OCCSc1ncnc2nc[nH]c12,7.35
22,CC(=O)NC1C(=O)N=C(SCC(=O)Nc2ccc(C(F)(F)F)cc2Cl)NC1=O (centres unmarked),4.54
23,COCCNS(=O)(=O)c1ccccc1,9.2

row,SMILES,"hERG current change (%, negative = inhibition) at 1uM [%]"
1,C/C(Cn1nnc([N+](=O)[O-])n1)=N\NC(=O)c1cccc(Cl)c1,1.51
2,CC(C)c1ccc(N(CC(=O)NC(C)(C)C)C(=O)CCC(=O)Nc2nccs2)cc1,8.79
3,COc1ccc(C2CC(=O)C(C=NCCN3CCN(C(=S)Nc4ccccc4)CC3)=C(O)C2)cc1OC (centres unmarked),1.75
4,COc1ccc(C(=O)NC(=S)NCc2ccccc2)cc1,-3
5,CCN(c1ccccc1)S(=O)(=O)c1nnc(NC(=O)c2ccccc2OC)s1,10.2
6,CC(C)Oc1cccc(C(=O)C2CCCN(Cc3ccc(Oc4ncccn4)cc3)C2)c1 (centres unmarked),-7.28
7,C/C(N)=C(/C#N)C(=O)CSc1nnc(NC(C)C)s1,13
8,CC(C)(C)NC(=O)CN(C(=O)CNC(=O)c1cccs1)c1ccc2c(c1)OCCO2,18
9,CSCCC(NC(=O)c1cccc(C)c1)C(=O)OCN1C(=O)c2ccccc2C1=O (centres unmarked),3.99
10,Cc1cc(C)cc(NC(=O)C(=O)NCCCN2CCCC2=O)c1,-0.122
11,CCCCc1nnc(NC(=O)CN(C)S(=O)(=O)c2ccc(C)cc2)s1,8.65
12,Cc1ccc2oc(/N=C(\N)NC(=O)C(C)(C)C)nc2c1,13.9
13,C=CCn1c(O)c(N=Nc2c(C)n(C)n(-c3ccccc3)c2=O)c(=O)[nH]c1=S,-2.86
14,CC1Cc2nc(SCC(=O)Nc3ccc4c(c3)OCO4)n(CCc3ccccc3)c(=O)c2S1 (centres unmarked),16.8
15,Cc1ccc2c(c1)-c1cc(C)nn1C(c1sccc1C)N2 (centres unmarked),-8.48
16,CCCOc1ccccc1NP(=O)(Oc1ccccc1)Oc1ccccc1,9.21
17,Cc1c(C(=O)N(Cc2cccs2)C2CCS(=O)(=O)C2)oc2ccccc12 (centres unmarked),-14.1
18,O=C(NC1CCCCCC1)c1cc(S(=O)(=O)N2CCC3(CC2)OCCO3)ccc1F,6.21
19,CCc1nc(N2CCN(C(=O)c3ccco3)CC2)c(C#N)c2c1COC(C)(C)C2,6.75
20,Cc1c(NC(=O)CN2c3ccccc3CC2C)c(=O)n(-c2ccccc2)n1C (centres unmarked),8.44
21,CC(C)(C)/C(O)=C/c1nc2cc(Cl)ccc2oc1=O,10.2
22,O=C(Nc1nc(-c2ccccn2)cs1)c1ccc(S(=O)(=O)N2CCCCC2)cc1,5.29
23,CCOc1ncccc1C(=O)Nc1ccc(Cl)c(S(=O)(=O)N2CCCC2)c1,2.41

row,SMILES,"hERG current change (%, negative = inhibition) at 1uM [%]"
1,COc1ccc(C2C(C(=O)Nc3cccnc3)=C(C)Nc3nc(-c4cccs4)nn32)cc1 (centres unmarked),-2.21
2,O=C(Cc1ccc(-n2cccc2)cc1)N1CCc2ccccc21,9.59
3,COc1ccc(CC(=O)Nc2ccc(S(=O)(=O)Nc3ncccn3)cc2)cc1OC,7.38
4,CCCCOc1ccc(N(CC(=O)NCC2CCCO2)C(=O)CCC(=O)Nc2nccs2)cc1 (centres unmarked),8.94
5,COc1ccc(CNC(=O)Cc2c[nH]c3ccccc23)cc1OC,12.9
6,CCOc1ccc(C(=O)NNC(=O)CNC(=O)c2ccc(C)s2)cc1OC,12.2
7,COc1ccc(OCC(O)CN2CCNCC2)cc1.Cl (centres unmarked),14.6
8,CC(SCc1ccccc1)C(=O)Nc1ccccc1 (centres unmarked),14.2
9,CCc1ccc(NC(=O)c2ccc3c(c2)C(=O)N(CCOC)C3Nc2ccc(CC)cc2)cc1 (centres unmarked),7.04
10,O=C1CCCc2cc3c(cc21)CC1(C3)Cc2cc3c(cc2C1)C(=O)CCC3,14.4
11,CC1CCN(c2ccc(NC(=O)Cc3ccccc3)cc2)CC1,14.8
12,CCCCn1c(SCC(=O)OCC)nc2c1c(=O)[nH]c(=O)n2C,-9.19
13,C=CCn1c(C)cc(C(=O)CSc2nc3ccccc3c(=O)[nH]2)c1C,9.6
14,CCOP(=O)(OCC)C(NC(=O)Nc1ccc(Cl)cc1)C(N)=O (centres unmarked),9.12
15,O=C(CC1C(=O)NCCN1Cc1c(F)cccc1Cl)NCCCn1ccnc1 (centres unmarked),11.4
16,COCCNS(=O)(=O)c1cc(F)ccc1OC,4.59
17,COc1cc(C2NC(=O)NC(O)(C(F)(F)F)C2C(C)=O)cc(OC)c1OC (centres unmarked),6.64
18,C=C(C)CNC(=S)N/N=C/c1ccc(N2CCOCC2)cc1,17.6
19,CCOC(=O)N=S(N)(=O)c1ccccc1 (centres unmarked),-12.7
20,Cn1cc(CN2CCC(n3nccc3NC(=O)Cc3ccccc3)CC2)cn1,6.09
